Test results taken from PubChem BioAssay AID588855 (National Center for Advancing Translational Sciences (NCATS), 2011).
Hit rate of the full screen: of about 410,000 compounds, about 5,000 (1.2%) were called active. The inconclusive results got no clear call from the source; some entries with a clear call stand among them for comparison. Calls follow the shape of the dose curve; as a rule, active = well fitted inhibition curve with a large enough effect; inconclusive = small, poorly fitted or top-dose-only effect; inactive = no such curve, though single readings can be large or run the other way. Potencies beside an inconclusive call are fits to weak or partial responses and may not hold up.
Potency is read from the fitted curve at half-maximal effect; tags tell the direction and shape of the fitted curve.

Assay: qHTS for Inhibitors of TGF-b; also: nearly all actives have a fitted effect of over 65% in size
Details: HepG2 CAGA-GFP TGF-b/SMAD3 reporter, GFP fluorescence, 18 h, TGF-beta stimulated, 500 pg/mL final; series mostly up to 46.1 µM
Procedure, shortened: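 Cell-based qHTS in HEPG2 carrying a CAGA-GFP Smad reporter; compounds added before 500 pg/mL final TGF-beta, 18 h incubation at 37 degrees C, GFP fluorescence quantified per cell by imaging cytometry.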
In the case of `CC1(c2cccc(Br)c2)NC(=O)N(CC(=O)NCC2CCCO2)C1=O` (stereo not given), the Potency is reported as “inactive”.
For `COc1cccc(NC(=O)Cn2cc(C(=O)C3CCCCC3)c3ccccc32)c1`, the Potency was inconclusive: 20 µM [inhibitor, partial curve, poor fit].
For `Cc1ccc(C)c(NC(NC(=O)c2ccccn2)C(Cl)(Cl)Cl)c1` (stereo not given), the Potency was inconclusive: 22.4 µM [inhibitor, single point].
In the case of `CCOC(=O)C1CCCN(CC(O)COc2ccc(OC)cc2C(C)(C)C)C1` (stereo not given), the Potency is reported as inconclusive: 6.31 µM [inhibitor, single point].
In the case of `O=C(Nc1nccs1)c1ccc(N2C(=O)[C@@H]3[C@H](C2=O)[C@H]2C=C[C@@H]3C2)cc1`, the Potency is reported as inconclusive: 35.5 µM [inhibitor, single point].
In the case of `COc1cccc(CNC(=O)CN2C(=O)N(c3cc(C)ccc3C)S(=O)(=O)c3ccccc32)c1OC`, the Potency is reported as inconclusive: 14.1 µM [inhibitor, single point].
In the case of `O=C(c1ccc([N+](=O)[O-])s1)N1CCc2ccccc21`, the Potency is reported as “inactive”.
In the case of `Cc1ccnc(N/C=C(\C#N)c2nc(-c3cccc(Br)c3)cs2)c1`, the Potency is reported as “inactive”.
With `COc1ccc2nc(N3CCOCC3)cc(C)c2c1` the Potency was inconclusive: 3.98 µM [inhibitor, partial curve].
For `COc1cc(C)c(Cl)cc1S(=O)(=O)NCCc1c(C)[nH]c2ccccc12`, the Potency was inconclusive: 35.5 µM [inhibitor, single point].
With `Cc1ccc(C)c(CN2C(=O)c3ccccc3S(=O)c3ccc(C(=O)NCc4ccccc4Cl)cc32)c1` (stereo not given) the Potency was inconclusive: 3.16 µM [inhibitor, full curve].
For `COc1ccc(CNC(=O)CN(c2ccc(C)cc2)S(=O)(=O)c2c(C)n[nH]c2C)cc1`, the Potency was inconclusive: 8.91 µM [inhibitor, partial curve, poor fit].
In the case of `COc1ccc2oc(=O)c(-c3csc(/C(C#N)=C/c4ccc(F)cc4)n3)cc2c1`, the Potency is reported as inconclusive: 5.62 µM [inhibitor, single point].
In the case of `O=S(=O)(Nc1cc(Br)cc2cccnc12)c1cccc2ccccc12`, the Potency is reported as inconclusive: 7.08 µM [inhibitor, partial curve, poor fit].
For `COc1ccccc1N1CCN(C(=O)C2CCN(S(=O)(=O)c3cnc[nH]3)CC2)CC1`, the Potency was “inactive”.
In the case of `CC(C)c1ccccc1-n1c(SCC(=O)N2CCc3ccccc3C2)nc2ccccc2c1=O`, the Potency is reported as inconclusive: 28.2 µM [inhibitor, single point].
In the case of `Cc1ccc(-n2c(C)c3c(C)nnc(C)c3c2C)cc1C`, the Potency is reported as “inactive”.
For `COc1ccccc1/C=C/C(=O)NCC(=O)N/N=C/c1cc(Br)ccc1OC`, the Potency was inconclusive: 35.5 µM [inhibitor, single point].
With `COc1ccc(CCC(=O)Nc2ccc(Cl)c(S(=O)(=O)N3CCCC3)c2)cc1` the Potency was inconclusive: 17.8 µM [inhibitor, partial curve, poor fit].
In the case of `Cc1ccc(CNC(=O)CCCn2c(=O)c3ccccc3n(CC(=O)C(C)(C)C)c2=O)cc1`, the Potency is reported as “inactive”.
In the case of `CC(C)(CO)NS(=O)(=O)c1ccc2c(c1)oc(=O)c1cc(S(=O)(=O)NC(C)(C)CO)ccc12`, the Potency is reported as inconclusive: 20 µM [inhibitor, single point].
With `CCC1=Nc2cc(C(=O)NCc3ccco3)ccc2Sc2ccc(C)cc21` the Potency was inconclusive: 6.31 µM [inhibitor, full curve].
With `CCOc1ccc(C2c3[nH]c4ccccc4c3CCN2C(=O)Cn2cncn2)cc1` (stereo not given) the Potency was inconclusive: 3.16 µM [inhibitor, full curve].
For `Cc1cc(O)c(C(C[N+](=O)[O-])c2ccc(Cl)cc2Cl)c(=O)o1` (stereo not given), the Potency was inconclusive: 35.5 µM [inhibitor, single point].
For `COc1cc(NC(=O)C(CC(C)C)NS(=O)(=O)c2ccc3c(c2)CCCC(=O)N3)cc(OC)c1` (stereo not given), the Potency was inconclusive: 0.251 µM [inhibitor, full curve, poor fit].
For `CC1(C)ON=C(c2cccc(F)c2)NC1=O`, the Potency was “inactive”.
With `COC(=O)c1ccc(/C=N/NC(=O)CC(=O)NC2CCCCC2)cc1` the Potency was inconclusive: 0.447 µM [inhibitor, partial curve, poor fit].
In the case of `CN(C(=O)N1CCN(S(=O)(=O)c2ccccc2)CC1)c1ccccc1`, the Potency is reported as inconclusive: 8.91 µM [inhibitor, partial curve].
In the case of `S=C(NCCCc1cnc[nH]1)NCCCN(Cc1ccc(Cl)cc1)c1ccc(-c2ccccc2)cn1`, the Potency is reported as inconclusive: 35.5 µM [inhibitor, single point].
For `COc1ccccc1NC(=S)NC1CCCCCCCCCCC1`, the Potency was inconclusive: 11.2 µM [inhibitor, partial curve].
In the case of `CCN(CC)CCC(=O)N1c2ccccc2CCc2ccc(NC(=O)OC(C)C)cc21`, the Potency is reported as inconclusive: 35.5 µM [inhibitor, single point].
With `Cc1ccc(NC(=S)Nc2cccnc2)c(S(=O)(=O)N2CCCCC2)c1` the Potency was inconclusive: 35.5 µM [inhibitor, single point].
With `c1ccc(Cc2nnc(Sc3ccccc3)c3ccccc23)cc1` the Potency was inconclusive: 10 µM [inhibitor, partial curve, poor fit].
With `Cc1ccc(NC(=O)N2CCC(N3CCN(Cc4ccccc4)C(=O)C3=O)CC2)cc1Cl` the Potency was “inactive”.
With `CN(CCO)c1cc(Sc2nc3ccccc3s2)c2nonc2c1[N+](=O)[O-]` the Potency was inconclusive: 7.94 µM [inhibitor, partial curve, poor fit].
With `O=C(CN1C(=O)/C(=C\c2cccc(Cl)c2)Sc2ccccc21)NCCCN1CCOCC1` the Potency was “inactive”.
For `Cc1csc2c(=O)[nH]cnc12`, the Potency was “inactive”.
For `COCCCNC(=O)c1ccc2c(c1)N=C(C)c1c(C)ccc(C)c1S2`, the Potency was inconclusive: 0.0891 µM [inhibitor, full curve, poor fit].
For `Cc1ccc(-c2nnc(N3CCCCC3)c3ccccc23)cc1S(=O)(=O)NCC1CCCO1` (stereo not given), the Potency was inconclusive: 35.5 µM [inhibitor, single point].
For `Cc1cccc(N2CCN(C(=O)c3cccc(N4CCCC4=O)c3)CC2)c1C`, the Potency was inconclusive: 14.1 µM [inhibitor, single point].
